Experimental data: PMC6250432, “Catalytic competence, structure and stability of the cancer-associated R139W variant of the human NAD(P)H: quinone oxidoreductase 1 (NQO1)” (The FEBS journal, 2017)

Target: the molecule itself
Assay: SAXS; solutions of FAD-free (apo) and FAD-bound (holo) wild-type NQO1, 300 uM solute, in-house instrument; masses evaluated from the Porod volume; step: dimer of two protomers

B1: human NAD(P)H:quinone oxidoreductase 1 (NQO1), wild type (enzyme)
chain: not shown
notes: NAD(P)H:quinone oxidoreductase 1 (NQO1), human, EC 1.6.99.2; Homodimeric flavoprotein; also called NQO1 WT; wild-type NQO1
In the case of B1, the “stoichiometry N” value is reported as 2.
